Data as given in publication PMC4336329 (PLoS ONE, 2015).
Out of some 310,000 compounds screened, about 14,000 (4.5%) showed an effect of 50% or more. Effects have a minus sign here. This is one part of the list.

molecular target: human ether-à-go-go-related gene (hERG) potassium channel (human, UniProt Q12809); experiment: primary screen, population patch clamp on CHO cells stably expressing hERG
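Note: peak tail current of the secondary pulse compared with the same well before compound.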

Sequence of human ether-à-go-go-related gene (hERG) potassium channel (Q12809 whole entry, looked up): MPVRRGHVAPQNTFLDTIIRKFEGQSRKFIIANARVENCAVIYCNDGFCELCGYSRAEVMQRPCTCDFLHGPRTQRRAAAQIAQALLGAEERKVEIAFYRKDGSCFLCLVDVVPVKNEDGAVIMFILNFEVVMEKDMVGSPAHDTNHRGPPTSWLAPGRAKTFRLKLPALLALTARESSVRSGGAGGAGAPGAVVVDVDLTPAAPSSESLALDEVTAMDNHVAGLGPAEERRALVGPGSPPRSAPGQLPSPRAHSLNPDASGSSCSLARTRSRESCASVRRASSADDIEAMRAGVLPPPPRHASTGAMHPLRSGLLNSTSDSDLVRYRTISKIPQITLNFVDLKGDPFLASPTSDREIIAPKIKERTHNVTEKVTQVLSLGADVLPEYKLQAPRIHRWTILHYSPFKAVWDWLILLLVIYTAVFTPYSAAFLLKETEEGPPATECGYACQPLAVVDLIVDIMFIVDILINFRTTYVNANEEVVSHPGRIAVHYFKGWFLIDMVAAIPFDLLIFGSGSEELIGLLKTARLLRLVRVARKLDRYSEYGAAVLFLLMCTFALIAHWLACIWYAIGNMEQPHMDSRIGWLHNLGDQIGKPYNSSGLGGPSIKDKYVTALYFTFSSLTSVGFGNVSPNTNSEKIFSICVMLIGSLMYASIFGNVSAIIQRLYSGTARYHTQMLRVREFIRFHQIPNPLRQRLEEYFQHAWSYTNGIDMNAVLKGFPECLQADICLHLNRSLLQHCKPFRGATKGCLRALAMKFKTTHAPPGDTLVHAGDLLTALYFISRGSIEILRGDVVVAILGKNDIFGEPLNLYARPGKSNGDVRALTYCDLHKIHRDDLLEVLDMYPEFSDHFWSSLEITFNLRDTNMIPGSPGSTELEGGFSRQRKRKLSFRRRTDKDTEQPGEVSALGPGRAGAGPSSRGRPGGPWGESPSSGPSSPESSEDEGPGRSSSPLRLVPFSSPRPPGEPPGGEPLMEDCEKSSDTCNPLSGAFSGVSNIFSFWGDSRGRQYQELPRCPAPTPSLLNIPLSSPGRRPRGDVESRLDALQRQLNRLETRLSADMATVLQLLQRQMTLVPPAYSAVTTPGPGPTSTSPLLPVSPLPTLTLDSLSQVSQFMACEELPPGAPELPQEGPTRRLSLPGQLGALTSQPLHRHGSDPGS

SMILES	hERG current change (%, negative = inhibition) at 10uM [%]
CCN1CCn2c1nc(N1CCCCC1)nc2=O	-0.66
COCCN(C(=O)c1snc(C(N)=O)c1N)C(C(=O)NC1CCCCC1)c1ccc(F)cc1 (stereo not drawn)	16.9
CNC(=S)N/N=C/c1cn(CCOc2cccc(OC)c2)c2ccccc12	3.42
c1ccc(-c2[nH]ncc2CN2CCN(Cc3ccc4c(c3)OCO4)CC2)cc1	-37.9
COc1cc(/C=C2\SC(=O)N(CCNC(=O)c3cnc(C)cn3)C2=O)cc(OC)c1OC	9.78
CCn1cc(C(=O)N[C@H](C(=O)NCCCN2CCOCC2)C(C)C)c(=O)c2cc3c(cc21)OCO3	-2.69
Cc1nc(NC(=O)CN2CCN(c3cccc(Cl)c3)CC2)sc1C(=O)N(C)C	7.94
Cl.O=C(NN1CCN(Cc2ccccc2)CC1)c1ccc(N2CCOCC2)c([N+](=O)[O-])c1	-66.6
O=C(NCc1ccc(F)cc1)C1CCC(=O)N1C1CCCCC1 (stereo not drawn)	-3.36
FC(F)(F)c1nc2ccccc2nc1N/N=C/c1c(Cl)cccc1Cl	13.9
O=C(CC1CCCC1)Nc1ccc2c(c1)CCC2	-7.45
CC[C@@H](C)C(C(=O)N1CCN(C(=O)OC(C)(C)C)CC1)n1cc(-c2cn([C@@H](C)C(=O)N3CCN(C(=O)OC(C)(C)C)CC3)nn2)nn1 (stereo partly drawn)	16.3
O=S(=O)(Nc1nc2ccc(S(=O)(=O)N3CCCCC3)cc2s1)c1ccccc1	-8.76
O=C(NCCCNC(=O)C(F)(F)C(F)F)C(F)(F)C(F)F	6.91
COc1ccc(C(=O)NCCS(=O)(=O)NCc2ccc(F)cc2)cc1	-35.6
Cc1[nH]c2ccc(-c3n[nH]c(=S)n3Cc3ccccc3)cc2c1C	-7.46
O=c1[nH]c(SCc2ccc(Cl)cc2)nc2[nH]ncc12	2.83
Cc1ccc(S(=O)(=O)N(C)C)cc1NC(=O)c1cccs1	5.85
Cn1nccc1C(=O)NC1CCCc2c1cnn2-c1ccc(F)cc1F (stereo not drawn)	5.84
NS(=O)(=O)c1ccc(NC(=O)CSc2nnc(Cc3cccs3)n2-c2ccccc2)cc1	7.57
CNc1nc(C)c(C(=O)OCC(=O)OC)s1	12.8

SMILES	hERG current change (%, negative = inhibition) at 10uM [%]
CCc1nc(SCC(=O)c2ccc3c(c2)OCCO3)c2ccccc2n1	-7.92
O=C(c1ccc(F)cc1)N1CCCC(C(=O)N2CCc3ccccc3C2)C1 (stereo not drawn)	-1.07
CCCCCCCC#Cc1ccccc1/C=N/S(=O)c1ccc(C)cc1 (stereo not drawn)	-5.22
CCN(CC)CCCN=Cc1c(O)n(-c2ccccc2C)c(=O)c2ccccc12	-52.8
COc1ccc(C(=O)Nc2ccccc2)cc1NC(=O)c1ccc([N+](=O)[O-])cc1	-56.8
Cc1nn(-c2ccccc2)nc1C(=O)OCC(=O)N1CCC(C)CC1	-24.6
COc1ccc(N(C(=O)Cc2cccs2)C2C=CS(=O)(=O)C2)cc1 (stereo not drawn)	-1.12
O=C(C[n+]1cccc(/C=N/O)c1)N1CCCCCC1.[Cl-]	21.9
O=C(C1=C(O)C(=O)N(CCN2CCOCC2)C1c1ccc(F)cc1)c1cccs1 (stereo not drawn)	18.6
CCOC(=O)C(NC(C)=O)(OCc1ccccc1)C(F)(F)F (stereo not drawn)	1.3
COc1cc(NC(=O)CN2CCN(CC(=O)Nc3ccccc3OC)CC2)cc(OC)c1	0.0651
CC(=O)c1cccc(NC(=O)Nc2ccc(C)cc2)c1	0.791
COc1ccc(C(=O)NNC(=O)c2cc3ccccc3cc2O)cc1	16.1
COc1cccc(NC(=O)CCN2CCC(C(N)=O)CC2)c1	3.31
CC(=O)Nn1cc2c(c1-c1ccccc1)c(=O)n(C)c(=O)n2C	2.3
COc1ccc(NC(=O)c2nc(S(=O)(=O)Cc3cccc(C)c3)ncc2Cl)c(OC)c1	22.4
Cc1ccc(C(=O)OCC(=O)NCCN2C(=O)CSC2=O)cc1	3.87
CCc1cc2c(=O)c(-c3nc4ccccc4n3C)c(C)oc2cc1OC(C)=O	2.05
COC(=O)[C@@H]1OC(=O)[C@H]2O[C@@]23[C@@]1(C)CC[C@@H]1[C@@]2(C)C=CC(=O)OC(C)(C)[C@@H]2CC(=O)[C@]13C	29.3
Brc1ccc(-c2ccc(/C=N/Nc3nncc(-c4ccccc4)n3)o2)cc1	19
COc1cccc(NC(=O)c2cc(-c3ccncc3)nc3c(C)cc(C)cc23)c1	2.12

SMILES	hERG current change (%, negative = inhibition) at 10uM [%]
COc1ccc(-n2c3c(cc(C(=O)Nc4cccc(C)n4)c2=O)C(=O)CC(C)(C)C3)cc1	8.15
O=C(CSc1nc2[nH]ncc2c(=O)n1-c1ccccc1)c1ccc2c(c1)OCCO2	-6.39
Cc1ccc(NC(=O)CSc2nnc3ccccn23)cc1	7.56
CNCCc1ccccn1.Cl	7.88
CCOC(=O)N1CCC(NC(=O)CCc2c(C)nc3nc(C)nn3c2C)CC1	2.61
O=C(NCCCN1CCOCC1)C1CCC(=O)N1CCc1ccccc1 (stereo not drawn)	7.85
CNC(=O)c1sc(Nc2cc(C)ccc2C)nc1C	4.83
COC(=O)CCC(=O)NC(=S)Nc1ccc(S(=O)(=O)Nc2cc(OC)nc(OC)n2)cc1	22.5
FC(F)(F)c1cnc2c(-c3ccc(Cl)cc3Cl)noc2c1	12.3
Cc1cccc(NC(=O)Nc2ccc3c(c2)CCC3)c1	16.6
Cc1cc([N+](=O)[O-])ccc1NC(=O)Nc1ccc(F)cc1F	19.2
O=C(NCC1CC1)C1(C(F)(F)F)C/C(=C\Cc2ccccc2)CCCO1 (stereo not drawn)	7.58
COc1cnc(-c2ccccn2)nc1NC(C)C	7.65
Cc1cc(N2CCCCC2)n2nc(C)c(-c3ccccc3)c2n1	13.3
C=CCn1c(SCC(=O)Nc2cccc(C(=O)OC)c2)nnc1C(C)NC(=O)c1cccs1 (stereo not drawn)	-29.9
COc1ccc(C(C(=O)NC2CCCCC2)N(C(=O)CCl)c2ccc(Cl)cc2)cc1 (stereo not drawn)	-13.2
Cc1ccc(/C=c2\sc3nc(-c4cccs4)nn3c2=O)o1	-1.84
COc1cc2c(cc1NC(=O)c1cc(-c3ccncc3)nc3ccc(C)cc13)oc1ccccc12	-0.133
O=C(Nc1nnc(SCC(=O)N2CCCCC2)s1)c1cccs1	4.86
Cn1c(SCC(N)=O)nnc1C1CCN(S(=O)(=O)c2ccccc2C(F)(F)F)CC1	13.3
CCCOc1ccc(C(=O)CCC(=O)OCC(=O)N2CC(=O)Nc3ccccc32)cc1	10.4

SMILES	hERG current change (%, negative = inhibition) at 10uM [%]
[N-]=[N+]=N[C@@H](CCN1CC[C@H](O)CCC1=O)c1ccccc1	9.05
Clc1ccc(OCc2nn[nH]n2)cc1	18
CCN(CC)C(=O)Cn1cc(C(=O)C(=O)N2CC=C(c3ccccc3)CC2)c2ccccc21	-3.24
C/C(=N\NC(=O)c1cccc(S(=O)(=O)N2CCOCC2)c1)c1ccc(C)cc1	-3.88
CC1CCCCN1CCCNc1ccc(C(CC(N)=O)NC(=O)Cc2ccc(Cl)cc2)cc1[N+](=O)[O-] (stereo not drawn)	-10.5
O=C(Nc1ccc(NS(=O)(=O)c2ccc([N+](=O)[O-])cc2)cc1)c1ccco1	-18.2
Cc1ccc(N2CC(C(=O)Nc3cc(C(F)(F)F)ccc3N3CCCC3)CC2=O)cc1 (stereo not drawn)	-7.04
COc1ccc(Cl)cc1S(=O)(=O)N1CCC(C(=O)NCc2ccccn2)CC1	-7.12
Cc1ccc(NC(=O)CN(C)C(=O)c2ccc(COc3ccccc3)cc2)cc1	-5.46
COc1ccc2c(c1)[nH]c1c(=O)n(/N=C/C3C(C)C=C(C)CC3C)c(=O)[nH]c12 (stereo not drawn)	15.8
CCOc1ccc(S(=O)(=O)N2CCN(c3ccc(C)cc3C)CC2)cc1	-4.57
Cc1nn(CC(=O)NCCc2ccc(Cl)cc2Cl)c(C)c1[N+](=O)[O-]	-21.5
O=C(C1CCC1)N1CCc2cc(S(=O)(=O)NCc3cccnc3)ccc21	-7.87
Cc1ccc(NC(=O)NNC(=O)Cn2nc(-c3ccccc3)c(-c3ccccc3)c(C#N)c2=O)cc1	7.22
O=C1NN(c2ccc(Br)cc2)C(=O)/C1=C\c1ccc(O)cc1O	30.2
CC(=O)N1C(O)CC(C)N1c1ccccc1 (stereo not drawn)	14.3
CCO[C@@H]1OC(C(=O)NC2CC2)=C[C@H](C2CCCCC2)[C@H]1CCCO	-22
CCOc1ccc(/C=C/C(=O)C(C(N)=O)=C2SCCS2)cc1	11.3
O=[N+]([O-])c1cc(S(=O)(=O)N2CCCC2)ccc1NN=C1CCCC1	-11.1
O=C(Nc1ccccc1SCC1CSc2nc3ccccc3c(=O)n21)c1ccccc1 (stereo not drawn)	-67.7
COc1ccc(-c2cc(-c3cc(F)ccc3O)[nH]n2)cc1OC	10.3
